# Measured values: the supplement of paper PMC8728848
# This is one part of the list.
# B1: rAAL-2 (Agrocybe aegerita) (protein)
# chain: MTSNVITQDLPIPVASRGFADIVGFGLDGVVIGRNAVNLQPFLAVKNFAQNAGGWLTTKHVRLIADTTGTGKGDIVGFGNAGVYVSVNNGKNTFADPPKMVIANFGYDAGGWRVEKHLRYLADIRKIGRADIIGFGEKGVLVSRNNGGLNFGPATLVLKDFGYDAGGWRLDRHLRFLADVTGNGHLDIVGFGDKHVFISRNNGDGTFAPAKSVIDNFCIDAGGWKIGDHPRFVADLTGDGTADIIGCGKAGCWVALNNGGGVFGQVKLVINDFGTDKGWQAAKHPRFIADLTGNGRGDVVGFGNAGVYVALNNGDGTFQSAKLVLKDFGVQQGWTVSKHRRFVVDLTGDGCADIIGFGEKETLVSYNDGKGNFGPVKALTNDFSFSGGKWAPETTVCWMANLDSSRH
# Experiments:
# Assay in all cases: glycan array binding signal (z-score within array); higher = stronger binding
# Conditions in all cases: glycan notation: IUPAC condensed, linker removed
# [1] = target: Neu5Ac(a2-3)Gal(b1-4)[Fuc(a1-3)]GlcNAc(b1-3)Gal(b1-4)GlcNAc
# How it was run: (§1)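 Glycan array binding is given as a within-array Z-score, which can be read as non-binding when negative. The arrays, 3228 of them, came from the Consortium for Functional Glycomics database and were retained only where the protein sequence was available. Z-scores were averaged across arrays of the same protein sequence at different concentrations or buffers and across linkers.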
# [2] = target: Neu5Ac(a2-3)Gal(b1-4)[Fuc(a1-3)]GlcNAc(b1-3)Gal(b1-4)[Fuc(a1-3)]GlcNAc(b1-3)Gal(b1-4)[Fuc(a1-3)]GlcNAc
# How it was run: as §1
# [3] = target: Neu5Ac(a2-3)Gal(b1-4)[Fuc(a1-3)]GlcNAc(b1-3)GalNAc
# How it was run: as §1
# [4] = target: Neu5Ac(a2-3)Gal(b1-4)[Fuc(a1-3)]GlcNAc(b1-6)[Gal(b1-3)]GalNAc
# How it was run: as §1
# [5] = target: Neu5Ac(a2-3)Gal(b1-4)[Fuc(a1-3)]GlcNAc(b1-6)[Neu5Ac(a2-3)Gal(b1-3)]GalNAc
# How it was run: as §1
# [6] = target: Neu5Ac(a2-3)Gal(b1-4)[Fuc(a1-3)]GlcNAc6S
# How it was run: as §1
# [7] = target: Neu5Ac(a2-3)Gal6S(b1-4)GlcNAc
# How it was run: as §1
# [8] = target: Neu5Ac(a2-3)Gal6S(b1-4)[Fuc(a1-3)]GlcNAc
# How it was run: as §1
# Neu5Ac(a2-3)GalNAc = target: Neu5Ac(a2-3)GalNAc
# How it was run: as §1
# [9] = target: Neu5Ac(a2-3)GalNAc(b1-4)GlcNAc
# How it was run: as §1
# [10] = target: Neu5Ac(a2-3)[GalNAc(b1-4)]Gal(b1-4)Glc
# How it was run: as §1
# [11] = target: Neu5Ac(a2-3)[GalNAc(b1-4)]Gal(b1-4)GlcNAc
# How it was run: as §1
# [12] = target: Neu5Ac(a2-3)[GalNAc(b1-4)]Gal(b1-4)GlcNAc(b1-3)GalNAc
# How it was run: as §1
# [13] = target: Neu5Ac(a2-3)[Neu5Ac(a2-6)]GalNAc
# How it was run: as §1
# Neu5Ac(a2-6)Gal = target: Neu5Ac(a2-6)Gal
# How it was run: as §1
# [14] = target: Neu5Ac(a2-6)Gal(b1-3)GlcNAc(b1-3)[Gal(b1-4)GlcNAc(b1-6)]Gal(b1-4)Glc
# How it was run: as §1
# Neu5Ac(a2-6)Gal(b1-4)Glc = target: Neu5Ac(a2-6)Gal(b1-4)Glc
# How it was run: as §1
# [15] = target: Neu5Ac(a2-6)Gal(b1-4)GlcNAc
# How it was run: as §1
# [16] = target: Neu5Ac(a2-6)Gal(b1-4)GlcNAc(b1-2)Man
# How it was run: as §1
# [17] = target: Neu5Ac(a2-6)Gal(b1-4)GlcNAc(b1-2)Man(a1-3)Man(b1-4)GlcNAc(b1-4)GlcNAc
# How it was run: as §1
# [18] = target: Neu5Ac(a2-6)Gal(b1-4)GlcNAc(b1-2)Man(a1-3)[Gal(b1-4)GlcNAc(b1-2)Man(a1-6)]Man(b1-4)GlcNAc(b1-4)GlcNAc
# How it was run: as §1
# [19] = target: Neu5Ac(a2-6)Gal(b1-4)GlcNAc(b1-2)Man(a1-3)[GlcNAc(b1-2)Man(a1-6)]Man(b1-4)GlcNAc(b1-4)GlcNAc
# How it was run: as §1
# [20] = target: Neu5Ac(a2-6)Gal(b1-4)GlcNAc(b1-2)Man(a1-3)[GlcNAc(b1-2)Man(b1-4)GlcNAc(b1-2)Man(a1-6)]Man(b1-4)GlcNAc(b1-4)GlcNAc
# How it was run: as §1
# [21] = target: Neu5Ac(a2-6)Gal(b1-4)GlcNAc(b1-2)Man(a1-3)[GlcNAc(b1-4)][Neu5Ac(a2-6)Gal(b1-4)GlcNAc(b1-2)Man(a1-6)]Man(b1-4)GlcNAc(b1-4)GlcNAc
# How it was run: as §1
# [22] = target: Neu5Ac(a2-6)Gal(b1-4)GlcNAc(b1-2)Man(a1-3)[Man(a1-6)]Man(b1-4)GlcNAc(b1-4)GlcNAc
# How it was run: as §1
# [23] = target: Neu5Ac(a2-6)Gal(b1-4)GlcNAc(b1-2)Man(a1-3)[Neu5Ac(a2-3)Gal(b1-4)GlcNAc(b1-2)Man(a1-6)]Man(b1-4)GlcNAc(b1-4)GlcNAc
# How it was run: as §1
# [24] = target: Neu5Ac(a2-6)Gal(b1-4)GlcNAc(b1-2)Man(a1-3)[Neu5Ac(a2-6)Gal(b1-4)GlcNAc(b1-2)Man(a1-6)]Man(b1-4)GlcNAc(b1-4)GlcNAc
# How it was run: as §1
# [25] = target: Neu5Ac(a2-6)Gal(b1-4)GlcNAc(b1-2)Man(a1-3)[Neu5Ac(a2-6)Gal(b1-4)GlcNAc(b1-2)Man(a1-6)]Man(b1-4)GlcNAc(b1-4)[Fuc(a1-6)]GlcNAc
# How it was run: as §1
# [26] = target: Neu5Ac(a2-6)Gal(b1-4)GlcNAc(b1-2)Man(a1-6)Man(b1-4)GlcNAc(b1-4)GlcNAc
# How it was run: as §1
# [27] = target: Neu5Ac(a2-6)Gal(b1-4)GlcNAc(b1-2)Man(a1-6)[Gal(b1-4)GlcNAc(b1-2)Man(a1-3)]Man(b1-4)GlcNAc(b1-4)GlcNAc
# How it was run: as §1
# [28] = target: Neu5Ac(a2-6)Gal(b1-4)GlcNAc(b1-2)Man(a1-6)[GlcNAc(b1-2)Man(a1-3)]Man(b1-4)GlcNAc(b1-4)GlcNAc
# How it was run: as §1
# [29] = target: Neu5Ac(a2-6)Gal(b1-4)GlcNAc(b1-2)Man(a1-6)[Man(a1-3)]Man(b1-4)GlcNAc(b1-4)GlcNAc
# How it was run: as §1
# [30] = target: Neu5Ac(a2-6)Gal(b1-4)GlcNAc(b1-2)[Neu5Ac(a2-6)Gal(b1-4)GlcNAc(b1-4)]Man(a1-3)[GlcNAc(b1-4)][Neu5Ac(a2-6)Gal(b1-4)GlcNAc(b1-2)[Neu5Ac(a2-6)Gal(b1-4)GlcNAc(b1-6)]Man(a1-6)]Man(b1-4)GlcNAc(b1-4)GlcNAc
# How it was run: as §1
# [31] = target: Neu5Ac(a2-6)Gal(b1-4)GlcNAc(b1-2)[Neu5Ac(a2-6)Gal(b1-4)GlcNAc(b1-4)]Man(a1-3)[GlcNAc(b1-4)][Neu5Ac(a2-6)Gal(b1-4)GlcNAc(b1-4)Man(a1-6)]Man(b1-4)GlcNAc(b1-4)GlcNAc
# How it was run: as §1
# [32] = target: Neu5Ac(a2-6)Gal(b1-4)GlcNAc(b1-2)[Neu5Ac(a2-6)Gal(b1-4)GlcNAc(b1-6)]Man(a1-6)[Neu5Ac(a2-6)Gal(b1-4)GlcNAc(b1-2)Man(a1-3)][GlcNAc(b1-4)]Man(b1-4)GlcNAc(b1-4)GlcNAc
# How it was run: as §1
# [33] = target: Neu5Ac(a2-6)Gal(b1-4)GlcNAc(b1-3)Gal(b1-3)GlcNAc
# How it was run: as §1
# [34] = target: Neu5Ac(a2-6)Gal(b1-4)GlcNAc(b1-3)Gal(b1-4)GlcNAc
# How it was run: as §1
# [35] = target: Neu5Ac(a2-6)Gal(b1-4)GlcNAc(b1-3)Gal(b1-4)GlcNAc(b1-2)Man(a1-3)[Neu5Ac(a2-6)Gal(b1-4)GlcNAc(b1-3)Gal(b1-4)GlcNAc(b1-2)Man(a1-6)]GalNAc
# How it was run: as §1
# [36] = target: Neu5Ac(a2-6)Gal(b1-4)GlcNAc(b1-3)Gal(b1-4)GlcNAc(b1-3)Gal(b1-4)GlcNAc
# How it was run: as §1
# [37] = target: Neu5Ac(a2-6)Gal(b1-4)GlcNAc(b1-3)Gal(b1-4)GlcNAc(b1-3)Gal(b1-4)GlcNAc(b1-2)Man(a1-3)[Neu5Ac(a2-6)Gal(b1-4)GlcNAc(b1-3)Gal(b1-4)GlcNAc(b1-3)Gal(b1-4)GlcNAc(b1-2)Man(a1-6)]GalNAc
# How it was run: as §1
# [38] = target: Neu5Ac(a2-6)Gal(b1-4)GlcNAc(b1-3)Gal(b1-4)GlcNAc(b1-3)GalNAc
# How it was run: as §1
# [39] = target: Neu5Ac(a2-6)Gal(b1-4)GlcNAc(b1-3)Gal(b1-4)GlcNAc(b1-3)[Neu5Ac(a2-6)Gal(b1-4)GlcNAc(b1-3)Gal(b1-4)GlcNAc(b1-6)]GalNAc
# How it was run: as §1
# [40] = target: Neu5Ac(a2-6)Gal(b1-4)GlcNAc(b1-3)Gal(b1-4)GlcNAc(b1-6)[Gal(b1-3)]GalNAc
# How it was run: as §1
binder,measurement,setting,value
B1,glycan array binding signal (z-score),[1],-0.252
same,glycan array binding signal (z-score),[2],-0.223
same,glycan array binding signal (z-score),[3],-0.171
same,glycan array binding signal (z-score),[4],-0.114
same,glycan array binding signal (z-score),[5],0.106
same,glycan array binding signal (z-score),[6],-0.172
same,glycan array binding signal (z-score),[7],-0.154
same,glycan array binding signal (z-score),[8],-0.383
same,glycan array binding signal (z-score),Neu5Ac(a2-3)GalNAc,-0.137
same,glycan array binding signal (z-score),[9],-0.278
same,glycan array binding signal (z-score),[10],-0.371
same,glycan array binding signal (z-score),[11],-0.33
same,glycan array binding signal (z-score),[12],-0.146
same,glycan array binding signal (z-score),[13],-0.352
same,glycan array binding signal (z-score),Neu5Ac(a2-6)Gal,-0.283
same,glycan array binding signal (z-score),[14],-0.313
same,glycan array binding signal (z-score),Neu5Ac(a2-6)Gal(b1-4)Glc,-0.303
same,glycan array binding signal (z-score),[15],-0.153
same,glycan array binding signal (z-score),[16],-0.097
same,glycan array binding signal (z-score),[17],-0.164
same,glycan array binding signal (z-score),[18],-0.27
same,glycan array binding signal (z-score),[19],-0.33
same,glycan array binding signal (z-score),[20],-0.22
same,glycan array binding signal (z-score),[21],-0.341
same,glycan array binding signal (z-score),[22],-0.223
same,glycan array binding signal (z-score),[23],-0.237
same,glycan array binding signal (z-score),[24],-0.203
same,glycan array binding signal (z-score),[25],-0.099
same,glycan array binding signal (z-score),[26],-0.258
same,glycan array binding signal (z-score),[27],0.004
same,glycan array binding signal (z-score),[28],-0.249
same,glycan array binding signal (z-score),[29],-0.238
same,glycan array binding signal (z-score),[30],-0.391
same,glycan array binding signal (z-score),[31],-0.237
same,glycan array binding signal (z-score),[32],-0.19
same,glycan array binding signal (z-score),[33],-0.329
same,glycan array binding signal (z-score),[34],-0.212
same,glycan array binding signal (z-score),[35],0.111
same,glycan array binding signal (z-score),[36],-0.301
same,glycan array binding signal (z-score),[37],0.107
same,glycan array binding signal (z-score),[38],-0.341
same,glycan array binding signal (z-score),[39],0.021
same,glycan array binding signal (z-score),[40],0.107
